Experimental data from the RNAGym collection of RNA variant scans (doi:10.7554/elife.90254).
Read counts are not given, so values of variants with three or more changes are uncertain.

B1: LINE1-mini (parent)
chain: GGCAGAGCUCAACACAGCGUGGCAAAGUGGCUGUGGCUAGACUGCC

Variants of: B1
Experiment: self-cleavage, relative activity (ratio to wild type); higher = more cleavage; in vitro, sequencing; the parent is a self-cleaving ribozyme

| Variant | self-cleavage |
| --- | --- |
| GGCAGAGUUCAACACUGCGUGGCAAAGUGGCUUUGGCUAGACUGCC [C8U A16U G33U] | 0.12 |
| GGCAGAGUUCAACACAGCGUGGCCAAGUGGCUGUGGUUAGACUGCC [C8U A24C C37U] | 0.22 |
| GGCAGAGUUCAACACAGCGUGGCCAAGUGGCUGUGGCUAGACUGAC [C8U A24C C45A] | 0.1 |
| GGCAGAGUUCAACACAGCGUGGCGAAGUGGCUGUGGCUAGAUUGCC [C8U A24G C42U] | 0.25 |
| GGCAGAGUUCAACACAGCGUGGCGAAAUGGCUGUGGCUAGACUGCC [C8U A24G G27A] | 0.19 |
| GGCAGAGUUCAACACAGCGUGGCUAAGUGGCUGUGGCUAGACUACC [C8U A24U G44A] | 0.12 |
| GGCAGAGUUCAACACAGCGUGGCAGAGCGGCUGUGGCUAGACUGCC [C8U A25G U28C] | 0.09 |
| GGCAGAGUUCAACACAGCGUGGCAUAUUGGCUGUGGCUUGACUGCG [C8U A25U G27U A39U C46G] | 0 |
| GGCAGAGUUCAACACAGCGUGGCAUAGUUGCUGUGGCUAAACUGCC [C8U A25U G29U G40A] | 0.05 |
| GGCAGAGUUCAACACAGCGUGGCAACGUGCCAGUGGCUAGACUGCC [C8U A26C G30C U32A] | 0.15 |
| GGCAGAGUUCAACACAGCGUGGCAACGUGGCUGUGUCUAGACUGCC [C8U A26C G36U] | 0.32 |
| GGCAGAGUUCAACACAGCGUGGCAAUGUUGCUGUUGCUAGACUGCC [C8U A26U G29U G35U] | 0.15 |
| GGCAGAGUUCAACACAGCGUGGCAAAGUGGCUGUGGCUUGAAUACC [C8U A39U C42A G44A] | 0.01 |
| GGCAGAGUUAAACUCAGCGUGGCAAAGCGGCUCUGGCUAGACUGCC [C8U C10A A14U U28C G33C] | 0.03 |
| GGCAGAGUUAAACACUGCGUGGCAAAGUGGCUGUGGGUAGACUUCC [C8U C10A A16U C37G G44U] | 0.03 |
| GGCAGAGUUAAACACAGGGUGGCAAAGUGGCUGUGGCUAGAAUACC [C8U C10A C18G C42A G44A] | 0 |
| GGCAGAGUUAAACACAGCGUGGCAAAGUGGGUGUGGCUAGACUGCC [C8U C10A C31G] | 0.02 |
| GGCAGAGUUAAACACAGCGUGGCAAAGUGGCUGUGGUUAGACUGCC [C8U C10A C37U] | 0.08 |
| GGCAGAGUUAAACACACCGUGGCAAAGUGGCUGUGGCAAGAGUGCC [C8U C10A G17C U38A C42G] | 0.01 |

| Variant | self-cleavage |
| --- | --- |
| GGCAGAGUUAAACACAUCGUGGCAGAGUGGCUGUGGCUAGACUGCC [C8U C10A G17U A25G] | 0.03 |
| GGCAGAGUUGCACGCAGCGUGGCAAAGUGGCUGUGGCUAGACUGCC [C8U C10G A11C A14G] | 0.01 |
| GGCAGAGUUGAGCACAGCGUGGCAAAGUGGCUGUGGCUCGACUGCC [C8U C10G A12G A39C] | 0.04 |
| GGCAGAGUUGAACACAGCGUGGCAGAGUGGCUAUGGCUAUACUGCC [C8U C10G A25G G33A G40U] | 0.01 |
| GGCAGAGUUGAACAUAGGGUGGCAAAGUGGCUGUGGCUAGACUGCC [C8U C10G C15U C18G] | 0.03 |
| GGCAGAGUUGAACACAGCGUGGUAAAGUGUCUGUGGCUGGACUGCC [C8U C10G C23U G30U A39G] | 0.02 |
| GGCAGAGUUGAACACAGCGUGGCAAAGUGGCUGUGGCUAGACUGGC [C8U C10G C45G] | 0.03 |
| GGCAGAGUUGAACACAGCGUGGCAAAGUGGCUGUGGCUAGACUGCA [C8U C10G C46A] | 0.02 |
| GGCAGAGUUGAACACAGCAUGGCAAAGUGGCUGUGGCUAGACUGUC [C8U C10G G19A C45U] | 0 |
| GGCAGAGUUUAACACAGCGUGGCAAAGUGGCUGUGGCUAGACUGAC [C8U C10U C45A] | 0.02 |
| GGCAGAGUUUAACACAGCGUGCCGAAGUGGCUGUGGCUAGACUGCC [C8U C10U G22C A24G] | 0.02 |
| GGCAGAGUUCAAAACAGCGUGGCUAAGUGGCUGUGGCUAGACUGCC [C8U C13A A24U] | 0.03 |
| GGCAGAGUUCAAAACAGCGUGGCAAAGUGGCUGUGGCUAGACUGAC [C8U C13A C45A] | 0.34 |
| GGCAGAGUUCAAAACAGCUUGGCAAAGUGGCUGUGGCUAGACUGCC [C8U C13A G19U] | 0.26 |
| GGCAGAGUUCAAAACAGCGUGGCAAAGUUGCUGUGGCUAGACUGCC [C8U C13A G29U] | 0.01 |
| GGCAGAGUUCAAAACAGCGUGGCAAAGUGGCGGUGGCUACACUGCC [C8U C13A U32G G40C] | 0.07 |
| GGCAGAGUUCAAGAAAGCAUGGCAUAGUGGCUGUGGCUAUACUGCC [C8U C13G C15A G19A A25U G40U] | 0.02 |
| GGCAGAGUUCAAGAGAGCGUGGCAAAGUGGCUUUGGCUAGACUUCC [C8U C13G C15G G33U G44U] | 0.09 |
| GGCAGAGUUCAAGACAGCGUGUCAAAGUGACUGUGGCUAAUCUUCC [C8U C13G G22U G30A G40A A41U G44U] | 0.15 |

| Variant | self-cleavage |
| --- | --- |
| GGCAGAGUUCAAUACAGCGUGGCAAGGUGGCUGUGGCUAGACUGCC [C8U C13U A26G] | 0.27 |
| GGCAGAGUUCAAUACAGAGUGGCAAAGUGGCUGUGGCUAGACUGCC [C8U C13U C18A] | 0.06 |
| GGCAGAGUUCAAUACACCGUGGCAAAGUGGCUGUGGCUCGACUGCC [C8U C13U G17C A39C] | 0.7 |
| GGCAGAGUUCAAUACAGCGUUGCAAAGUGGCUGUGGCUAGACUGCC [C8U C13U G21U] | 0.03 |
| GGCAGAGUUCAAUACAGCGUUGCAAAGUGGCUGUGGCUAGUCUGCC [C8U C13U G21U A41U] | 0.37 |
| GGCAGAGUUCAACAAAGCGUGGCAAAUUGGCUGUGGCCAGACUGCC [C8U C15A G27U U38C] | 0.09 |
| GGCAGAGUUCAACAGAGCGUGGAAAAGUGGCUGUGGCUAGACUGCC [C8U C15G C23A] | 0.17 |
| GGCAGAGUUCAACAGAGCGUUGCAAAGAGGUUGUGGCUAGGCUGCC [C8U C15G G21U U28A C31U A41G] | 0.04 |
| GGCAGAGUUCAACAUUGCGUGGCAAAGUGGUUGUGGCUAGACAGCC [C8U C15U A16U C31U U43A] | 0.02 |
| GGCAGAGUUCAACAUAGCGUGACAAAGUGGCUGUGGCUAGACUGCC [C8U C15U G22A] | 0.29 |
| GGCAGAGUUCAACAUAGCGUGGCAAAGUGACUGUGGCUAUACUGCC [C8U C15U G30A G40U] | 0.1 |
| GGCAGAGUUCAACAUAGCGUGGCAAAGUGGCUAUGGCUAGACUGCC [C8U C15U G33A] | 0.36 |
| GGCAGAGUUCAACACAGAGUGGCAAAGUGGCUGUGGCUAGACUGCU [C8U C18A C46U] | 0.17 |
| GGCAGAGUUCAACACAGAGUGGCAAAGUGCCUGUGGCUAGACUGCC [C8U C18A G30C] | 0.56 |
| GGCAGAGUUCAACACAGAGUGGCAAAGUGGCUCUUACUAGACUGCC [C8U C18A G33C G35U G36A] | 0.15 |
| GGCAGAGUUCAACACAGAGUGGCAAAGUGGCUCUGGCUAGACUACC [C8U C18A G33C G44A] | 0.08 |
| GGCAGAGUUCAACACAGUGUGGAAAAGUGUCUGAGGCUAGACUGCC [C8U C18U C23A G30U U34A] | 0.02 |
| GGCAGAGUUCAACACAGCGUGGAAAAGUGGCAGUGGCUAGACUGCC [C8U C23A U32A] | 0.08 |
